Assay results: PubChem BioAssay AID504332 (National Center for Advancing Translational Sciences (NCATS), 2011)
In all, about 350,000 compounds went through this assay and about 31,000 (8.9%) were called active. Inconclusive means that the source gave no clear call. Such entries were picked first, then a sample of the others. Calls follow the shape of the dose curve; as a rule, active = well fitted inhibition curve with a large enough effect; inconclusive = small, poorly fitted or top-dose-only effect; inactive = no such curve, though single readings can be large or run the other way. Potencies beside an inconclusive call are fits to weak or partial responses and may not hold up.

Target: Histone-lysine N-methyltransferase EHMT2 (Homo sapiens) (UniProt Q96KQ7)
Test: qHTS Assay for Inhibitors of Histone Lysine Methyltransferase G9a; also: nearly all actives have a fitted effect of over 75% in size
Conditions: G9a H3K9 monomethylation, AlphaScreen, 2 h; activity, negative = inhibition: at 59 µM (top of the series) unless noted
Summary of the method: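 Quantitative HTS format: methyltransferase activity on a biotin-tagged H3K9 peptide is measured by AlphaScreen, using a rabbit anti-monomethyl-H3K9 antibody with streptavidin donor and anti-IgG acceptor beads. Final levels are 20 nM enzyme, 500 nM peptide, 20 uM SAM; 2 h RT.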
% is scaled to controls: 0 for no effect and ±100 for the full control effect; potency is read from the fitted curve at half-maximal effect; tags tell the direction and shape of the fitted curve.

Sequence of UniProt Q96KQ7 (Q96KQ7 whole entry, looked up): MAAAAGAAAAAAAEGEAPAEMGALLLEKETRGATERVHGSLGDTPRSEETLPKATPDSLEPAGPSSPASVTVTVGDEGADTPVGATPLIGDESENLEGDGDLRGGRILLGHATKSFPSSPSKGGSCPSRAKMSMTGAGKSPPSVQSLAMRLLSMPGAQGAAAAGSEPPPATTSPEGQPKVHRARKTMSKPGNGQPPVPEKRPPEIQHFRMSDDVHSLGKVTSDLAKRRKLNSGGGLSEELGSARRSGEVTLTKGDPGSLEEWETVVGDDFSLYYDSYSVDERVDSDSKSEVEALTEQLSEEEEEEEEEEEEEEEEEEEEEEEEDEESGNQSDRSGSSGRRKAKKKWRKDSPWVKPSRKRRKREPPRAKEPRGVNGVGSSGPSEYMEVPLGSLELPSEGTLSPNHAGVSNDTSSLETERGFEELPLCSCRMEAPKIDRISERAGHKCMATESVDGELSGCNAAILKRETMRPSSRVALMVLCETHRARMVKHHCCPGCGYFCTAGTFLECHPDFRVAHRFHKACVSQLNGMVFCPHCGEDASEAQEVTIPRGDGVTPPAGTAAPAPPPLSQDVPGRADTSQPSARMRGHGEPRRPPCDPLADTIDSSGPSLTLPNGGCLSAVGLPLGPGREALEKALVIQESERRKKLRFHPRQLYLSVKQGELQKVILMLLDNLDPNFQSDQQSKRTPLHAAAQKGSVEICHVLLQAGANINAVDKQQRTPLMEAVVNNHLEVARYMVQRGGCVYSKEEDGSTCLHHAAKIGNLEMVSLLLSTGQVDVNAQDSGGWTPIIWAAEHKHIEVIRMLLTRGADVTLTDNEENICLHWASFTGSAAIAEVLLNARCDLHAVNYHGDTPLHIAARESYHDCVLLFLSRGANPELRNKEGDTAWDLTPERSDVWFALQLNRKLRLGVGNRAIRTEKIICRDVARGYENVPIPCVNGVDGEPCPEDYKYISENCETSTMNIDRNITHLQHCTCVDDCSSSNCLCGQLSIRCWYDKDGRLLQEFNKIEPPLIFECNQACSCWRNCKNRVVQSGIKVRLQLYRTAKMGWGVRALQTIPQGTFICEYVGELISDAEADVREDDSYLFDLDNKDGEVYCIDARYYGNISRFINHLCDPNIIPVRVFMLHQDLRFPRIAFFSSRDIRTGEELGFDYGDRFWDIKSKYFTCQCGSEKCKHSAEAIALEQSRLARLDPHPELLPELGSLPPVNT

Row | Compound | Potency | activity, negative = inhibition
1 | CC1(C)Cc2c(c(N3CCOCC3)nc3snc(Br)c23)CO1 | inconclusive: 79.4 µM [inhibitor, partial curve, poor fit] | –
2 | COCCn1c(=O)c(-c2ccc(Cl)cc2)nc2cnc(Oc3cccc(Cl)c3)nc21 | – | inactive: 2.97% [at 0.501 µM]
3 | CCc1ccc(OCC(=O)NCC(c2ccc(Cl)cc2)N2CCOCC2)cc1 (stereo not given) | inactive | –
4 | O=C(Cn1c2[n+](c3ccc(C(F)(F)F)cc31)CCCCC2)c1cccc([N+](=O)[O-])c1 | inconclusive: 0.708 µM [inhibitor, full curve, poor fit] | –
5 | O=c1c2ccccc2oc2cc(OCc3ccc(F)cc3)cc(O)c12 | inconclusive: 89.1 µM [inhibitor, single point] | –
6 | CCN(CC)c1ccc(/C=N/Nc2nn[nH]n2)cc1 | inconclusive: 44.7 µM [inhibitor, partial curve] | –
7 | CCCC12CN3CC(C)(CN(C1)C3c1ccc(CC)cc1)C2=O (stereo not given) | inconclusive: 39.8 µM [inhibitor, partial curve, poor fit] | –
8 | CCN(CC)CCCNC(=O)C1CCC(CNS(=O)(=O)c2ccc(Cl)cc2)CC1 (stereo not given) | inactive | –
9 | Fc1ccc(NC(=S)N2CCCc3ccccc32)cc1 | active: 39.8 µM | –
10 | Cc1cc([N+](=O)[O-])cc2c1NCC1CC=CC21 (stereo not given) | inconclusive: 39.8 µM [inhibitor, single point] | –
11 | Cc1nn(Cc2ccccc2Cl)c(C)c1NC(=O)CSc1n[nH]c(C)c1[N+](=O)[O-] | inconclusive: 39.8 µM [inhibitor, single point] | –
12 | O=C(CN1C(=O)c2ccccc2C1=O)Nc1sc2c(c1C(=O)NCC1CCCO1)CCC2 (stereo not given) | inconclusive: 56.2 µM [inhibitor, partial curve, poor fit] | –
13 | CC(Sc1ccc(S(=O)(=O)N2CCOCC2)cc1[N+](=O)[O-])C(=O)O (stereo not given) | inconclusive: 31.6 µM [inhibitor, single point] | –
14 | CCOC(=O)c1c(/N=C/c2cc(C)ccc2O)sc2c1CCC2 | inconclusive: 11.2 µM [inhibitor, partial curve, poor fit] | –
15 | O=C1/C(=C/c2ccncc2)SC(=S)N1Nc1ccccc1 | active: 31.6 µM | –
16 | Cc1cccc(NC(=O)CSc2nc3ccccc3c3nc(CCn4cncc4C)nn23)c1 | inconclusive: 28.2 µM [inhibitor, partial curve, poor fit] | –
17 | Cc1ccc(C(=O)N/C(=C\c2ccc(-c3ccccc3[N+](=O)[O-])o2)C(=O)NCCCN2CCOCC2)cc1 | active: 44.7 µM | –
18 | Nc1cc(Cl)ccc1N1CCCCCC1 | active: 10 µM | –
19 | CCn1ncc(C2=NOC(C(=O)NCc3ccc(OC)cc3)C2)c1C (stereo not given) | – | inactive: -6.37% [at 2.33 µM]
20 | CC(C)Oc1ccc(CNC(=O)C2CCN(C(=O)N3CCOc4ccc(Cl)cc43)CC2)cc1 | inconclusive: 25.1 µM [inhibitor, partial curve, poor fit] | –
21 | Cc1cccc(N2CCN(C(c3ccc(F)cc3)c3nnc(-c4ccccc4)o3)CC2)c1C (stereo not given) | inconclusive: 28.2 µM [inhibitor, single point] | –
22 | COc1ccc2c(c1)CCN1C2CCN2C(=O)CCC21 (stereo not given) | inconclusive: 79.4 µM [inhibitor, partial curve, poor fit] | –
23 | CC1CCc2c(sc(NC(=O)C3CCCO3)c2C#N)C1 (stereo not given) | inactive | –

Row | Compound | Potency | activity, negative = inhibition
24 | CCOC(=O)C1CCCN(S(=O)(=O)c2ccc3c4c2CC(=O)N4CC(C)S3)C1 (stereo not given) | active: 44.7 µM | –
25 | O=c1cc2nc(-c3ccccc3)nc(SCc3cccc(Br)c3)n2[nH]1 | inactive | –
26 | O=C(c1cccc2ccccc12)N1CCC(N2CCN(c3ccccc3)CC2)CC1 | – | inconclusive: -134% [inhibitor]
27 | O=C(CC(c1cccs1)N1Cc2ccccc2C1=O)Nc1ccccc1 (stereo not given) | inactive | –
28 | Cc1ccc(NC(=O)/C=C/c2ccc3c(c2)OCO3)cc1S(=O)(=O)N1CCOCC1 | inconclusive: 4.47 µM [inhibitor, single point] | –
29 | Cc1ccc(-c2nc(N)sc2CC(=O)OCC(=O)N2C(C)CCCC2C)cc1 (stereo not given) | inconclusive: 39.8 µM [inhibitor, single point] | –
30 | Cc1ccc(S(=O)(=O)NC2(C(F)(F)F)C(=O)Nc3c2c(=O)n(C)c(=O)n3C)cc1 (stereo not given) | inconclusive: 89.1 µM [inhibitor, single point] | –
31 | CCOC(=O)C(C#N)C(c1cccnc1)c1c(C)[nH][nH]c1=O (stereo not given) | – | inconclusive: -73.1% [inhibitor]
32 | O=C1CCc2cc(NS(=O)(=O)c3ccc(F)cc3)cc3c2N1CCC3 | inconclusive: 70.8 µM [inhibitor, partial curve, poor fit] | –
33 | COc1cccc(Nc2c(F)c(OC)c(F)c(F)c2C(=O)O)c1 | inconclusive: 56.2 µM [inhibitor, partial curve, poor fit] | –
34 | CC(C)n1c(O)c(N=Nc2ccccn2)c2ccccc21 | inconclusive: 1 µM [inhibitor, full curve, poor fit] | –
35 | COc1ccc(OC)c(CCNC(=O)CCc2nnc3ccc(N4CCCCC4)nn23)c1 | inactive | –
36 | CCOc1ccc(NC(=O)CSc2nc3cccnc3n2CC)cc1 | inactive | –
37 | CSc1nsc(SCC(=O)Nc2ccc(O)c(C(=O)O)c2)n1 | active: 39.8 µM | –
38 | CCn1c(N2CCC(Cc3ccccc3)CC2)nc2c1c(=O)[nH]c(=O)n2C | inconclusive: 79.4 µM [inhibitor, partial curve, poor fit] | –
39 | COc1ccc(OCC2c3cc(OC)c(OC)cc3CCN2C(=O)C(C)C)cc1 (stereo not given) | inconclusive: 89.1 µM [inhibitor, partial curve, poor fit] | –
40 | O=C(NNC(=O)c1ccccc1Br)c1ccccc1Cl | inactive | –
41 | NC(=O)CN1C(=O)C2CCCCN2C(=O)c2ccccc21 (stereo not given) | inactive | –
42 | Clc1cccc(CSc2nc3ccncc3[nH]2)c1 | inconclusive: 89.1 µM [inhibitor, single point] | –
43 | COc1ccc(Nc2ncnc3c2cnn3C)c(OC)c1 | inactive | –
44 | Clc1ccc(COc2cccc(CNCc3ccncc3)c2)cc1 | – | inconclusive: -66.2% [inhibitor]
45 | COc1ccc(C(=O)N/C(=C\c2cn(C)c3ccccc23)C(=O)N2CCN(C)CC2)cc1 | active: 44.7 µM | –
